Results on 41 molecules are retold here after ChEMBL document CHEMBL4888484, “Replenishing the malaria drug discovery pipeline: Screening and hit evaluation of the MMV Hit Generation Library 1 (HGL1) against asexual blood stage Plasmodium falciparum ,using a nano luciferase reporter read-out” (2022).

Out of some 150,000 compounds screened, about 540 (0.36%) showed an effect of 50% or more. The list shows a part of the results.

In this experiment the test system is Plasmodium falciparum. In words: Primary screen in NF54 nanoGlo assay, in single point, at 2uM, 72h; a lower Z score goes with more inhibition. The following applies: timepoint 72 hour. The format is functional, Erythrocyte.
Regarding `O=C1N[C@@H](CO)C(=O)N1c1ccccc1OC(F)(F)F`, the % Inhibition (as a rule, the change of the read-out against control, counted positive when it falls) was determined as 2% and the Z score is listed as -0.2.

As to `Cc1cccc(CNC(=O)c2ccc(N3CCOc4ccccc43)s2)c1`, the “% Inhibition” value stood at 0% and the Z score stood at 0.09.

As to `Cc1ccc(C(=O)N2CCN(c3ccccc3F)CC2)cc1N(C)S(C)(=O)=O`, the “% Inhibition” value was -17% and the Z score is reported as 2.07.

For `CN(C(=O)Cc1ccc2c(c1)OCO2)[C@H]1CCCc2c1cnn2C`, the “% Inhibition” value was -9% and the Z score is listed as 1.27.

With `Cc1ccccc1C[C@@]1(C2CCN(C(=O)C(C)(C)C)CC2)NC(=O)N(CCCN(C)C)C1=O`, the “% Inhibition” value was -5% and the Z score is listed as 0.58.

`O=C(Cc1ccc(S(=O)(=O)Nc2ccc(F)cc2)s1)N1CCCC1`: the “% Inhibition” value was 1% and the Z score was -0.13.

As for `COc1ccc2c(c1)C(C(=O)N1CC3CCC1C(C(=O)O)C3)CCC2` (configuration not stated), the “% Inhibition” value is -8% and the Z score was determined as 1.2.

Regarding `CCn1cc(NC(=O)NCc2cccnc2N2CCOCC2)cn1`, the “% Inhibition” value is reported as -7% and the Z score turned out to be 0.97.

As for `COc1ccccc1C1CN(C(=O)CC(C)(C)C)CC1C(=O)NC1CC1` (configuration not stated), the “% Inhibition” value is reported as -16% and the Z score is listed as 1.49.

Turning to `CCS(=O)(=O)CC(C)NC1CC(NC(=O)OC(C)(C)C)C1(C)C` (configuration not stated), the “% Inhibition” value amounted to 2% and the Z score was -0.31.

As to `CCn1c2ccccc2c2cc([C@H]3N[C@@](C)(CO)[C@H]4CN(C)C[C@@H]34)ccc21`, the “% Inhibition” value was determined as 1% and the Z score is -0.11.

As to `COc1ccc2c(c1)OCC[C@@H]2NC(=O)c1cc(C)c(C)cn1`, the “% Inhibition” value is -4% and the Z score was determined as 0.67.

`OC1CCN([C@H]2CCN(Cc3ccc(C(F)(F)F)cc3)C[C@@H]2O)CC1`: the “% Inhibition” value is -4% and the Z score amounted to 0.54.

With `CCCCN(Cc1ccccc1)c1ccc(C(=O)O)cc1NS(=O)(=O)c1ccccc1Cl`, the “% Inhibition” value is reported as 5% and the Z score is -0.86.

With `CCN(Cc1nc(C(C)C)no1)C(=O)c1ccoc1`, the “% Inhibition” value is listed as -3% and the Z score came out at 0.43.

As for `CCCN(C(=O)Nc1ccc(Cl)cc1)c1nc(-c2ccc(C3CCCCC3)cc2)cs1`, the “% Inhibition” value is -7% and the Z score was 1.12.

With `N#Cc1c(Br)cccc1NCC(F)(F)CN`, the “% Inhibition” value is -16% and the Z score was determined as 2.43.

Take `Cc1ccc(C#N)c(N2C[C@@H]3OC(=O)N(CCCN4CCOCC4)[C@@H]3C2)n1`: the “% Inhibition” value is given as -12% and the Z score is reported as 2.36.

As for `CC1CC(C)(C)C(CNC(=O)C2(C#N)CCC2)C1NC(=O)C1(C#N)CCC1` (configuration not stated), the “% Inhibition” value is on record as -11% and the Z score turned out to be 2.14.

For `Cc1ccc([C@H](C)NCC(=O)NCC(F)(F)F)c(C)c1`, the “% Inhibition” value is recorded as -8% and the Z score is given as 0.9.

`COC(=O)C(NCC1COC2(CCC(C)CC2)O1)c1cccnc1` (configuration not stated): the “% Inhibition” value is recorded as -9% and the Z score stood at 1.18.

For the molecule `C#CC(C)(C)OC[C@@H](O)CN1CCOCC1`, the “% Inhibition” value is -5% and the Z score turned out to be 0.45.

Take `CC1(C)CO[C@@H](CC(=O)N2CCOC3(CCS(=O)(=O)CC3)C2)C1`: the “% Inhibition” value was 0% and the Z score is on record as 0.06.

Consider `O=S(=O)(c1ccc(CC(F)(F)F)cc1)N1CCOCC12CCC2`, for which the “% Inhibition” value is given as 34% and the Z score was -4.9.

Take `C[C@@H](Cc1ccc(O)cc1)N1CCC(n2cc(C3CC3)nn2)CC1`: the “% Inhibition” value is listed as -6% and the Z score turned out to be 0.94.

For `O=C(c1cnc(C(F)(F)F)nc1)N1CCCC[C@@H]1Cn1ccnn1`, the “% Inhibition” value is on record as -7% and the Z score amounted to 0.79.

Regarding `O=S(=O)(NC1CCN(c2ncnc3c2CCCC3)CC1)C1CC1`, the “% Inhibition” value is recorded as -7% and the Z score is on record as 0.91.

With `O=C(COCc1ccccc1)N1CC[C@H](Oc2cc(C(F)(F)F)ccn2)C1`, the “% Inhibition” value was -9% and the Z score is reported as 1.64.

For `CC(C)n1c(=O)sc2cc(S(=O)(=O)N3CCN(C(=O)CCc4c[nH]c5ccccc45)CC3)ccc21`, the “% Inhibition” value is reported as -21% and the Z score is 2.08.

With `COc1nccnc1CN[C@H](c1ccccc1)C1(CO)CCC1`, the “% Inhibition” value is listed as 3% and the Z score was -0.35.

As for `COc1ccc(-n2c(N)c(NC(=O)Nc3cccc(Cl)c3)c(=O)[nH]c2=O)cc1`, the “% Inhibition” value came to 12% and the Z score is given as -1.54.

As for `COc1ccccc1-c1cc(C(=O)NC2CCCCC2)nc2cc(-c3ccccc3)nn12`, the “% Inhibition” value is given as -12% and the Z score amounted to 1.32.

With `COc1ccccc1COc1cc(NC(=O)NC(C)(C)C)ncn1`, the “% Inhibition” value is -10% and the Z score came out at 1.9.

Consider `COc1ccc(CN2CCC3(CCCC3)C2)cc1OC[C@@H](O)CN1CCCC1`, for which the “% Inhibition” value is on record as -11% and the Z score amounted to 1.99.

As to `COc1cc(CN(C)Cc2cc(C)no2)ccc1OC[C@@H](O)CN1CCCCCC1`, the “% Inhibition” value is given as 7% and the Z score is listed as -0.97.

Turning to `O=C(COc1cccc(C(F)(F)F)c1)N1CCN(c2cc(-n3cncn3)ncn2)CC1`, the “% Inhibition” value is reported as -11% and the Z score is 1.67.

As to `Cn1cc(Cl)c(C(=O)NC(C)(C)c2nc3ccccc3s2)n1`, the “% Inhibition” value is listed as 4% and the Z score was -0.56.

On to `Cn1cc(S(=O)(=O)N[C@H]2C[C@@H](c3cc(N4CCOCC4)ncn3)C2)cn1`, for which the “% Inhibition” value is -13% and the Z score is given as 1.19.

As to `Cc1nccn1CC(=O)N1CCCN(C(=O)CC2CCCC2)CC1`, the “% Inhibition” value is -20% and the Z score came out at 1.89.

Regarding `CC1CC(C)CN(S(=O)(=O)c2ccc(C(=O)Nc3ncnc4sccc34)cc2)C1` (configuration not stated), the “% Inhibition” value was -5% and the Z score is given as 0.76.

As for `O=C(Cc1ccc(F)cc1)NC[C@]1(O)CCOc2ccccc21`, the “% Inhibition” value was 18% and the Z score is -2.54.
